The RNAGym collection of RNA variant scans (doi:10.1093/nar/gkz1192)
Read counts are not given, so values of variants with three or more changes are uncertain.

B1: CPEB3 Ribozyme (parent)
chain: UAACAGGGGGCCACAGCAGAAGCGUUCACGUCGCAGCCCCUGUCAGAUUCUGGUGAAUCUGCGAAUUCUGCUGUAUAUCUC

Variants of: B1
Assay: self-cleavage, relative activity (ratio to wild type); higher = more cleavage; in vitro, sequencing
Summary of the method: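 After error-prone PCR and barcoding, CPEB3 ribozyme mutant libraries were transcribed with T7 RNA polymerase at 37°C for 5 hours, then given 15 min with DNase I before an EDTA stop, and they cleaved during both steps. Reverse transcription with template switching preceded Illumina sequencing. Relative activity divides a variant's cleaved/total read fraction by the unmutated ribozyme's. At least 5 reads were required per variant, and three batches were averaged.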
UAACGGGGGGCCACAGCAGAAGCGUUCACGUCGCAGCCCCUGCCAGAUUCUGGUGAACCUGUGAACCCCGCUGUAUAUCUC [A5G U43C U58C C62U U66C U67C U69C] showed a self-cleavage of 0.06. For UAACGGGGGGCCACAGCAGAAGCGUUCACGUCGCAGCCCCUGUCAGAUCCUGGCGAAUCUGCGAAUUCUGCUGUAUAUCUC [A5G U49C U54C], the self-cleavage was 0.17. UAACGGGGGGCCACAGCAGAAGCGUUCACGUCGCAGCCCCUGUCAGAUCCCGGUGAACCUGCGUACUCUGCUGUAUAUCUC [A5G U49C U51C U58C A64U U66C] gave a self-cleavage of 0.15. Variant UAACGGGGGGCCACAGCAGAAGCGUUCACGUCGCAGCCCCCGUCAGAUUCUGUUGAAUCUGCGAAUUCUGCUGUACAUCUC [A5G U41C G53U U76C] has a self-cleavage of 0.61. UAACGGGGGGCCACAGCAGAAGCGUUCACGUCGCAGCCCCCGUCUGAUUCUGGUGAACCUGCGAAUUCUGCUGUAUAUCUC [A5G U41C A45U U58C] gave a self-cleavage of 0.19. For UAACGGGGGGCCACAGCAGAAGCGUUCACGUCGCAGCCCCUGUCAGAUACUGAUGAAUCUGCGAAUUCUGCUGUAUAUCUC [A5G U49A G53A], the self-cleavage was 0.57. Work on UAACGGGGGGCCACAGCAGAAGCGUUCACGUCGCAGCCCCAGCCAGAUUCUGGUGAAUCUGCGAAUUCUGCUGUAUAUCCC [A5G U41A U43C U80C] yielded a self-cleavage of 0.42. UAACGGGGGGCCACAGCAGAAGCGUUCACGUCGCAGCCCCCGUCAGAUUCUGGUGAAUCCGCGAAUUCUCCUGUAUAUCUC [A5G U41C U60C G70C] showed a self-cleavage of 0.11. Variant UAACGGGGGGCCACAGCAGAAGCGUUCACGUCGCAGCCCCCGUCAGAUUCCGGUGAAUCCGCGGAUUCUGCUGUAUAUCUC [A5G U41C U51C U60C A64G] has a self-cleavage of 0.1. Work on UAACGGGGGGCCACAGCAGAAGCGUUCACGUCGCAGCCCCUGUCAGAUCCUGGUGAAUCUGCGAAUCCUGCUGUAUAUCUC [A5G U49C U67C] yielded a self-cleavage of 0.14. UAACGGGGGGCCACAGCAGAAGCGUUCACGUCGCAGCCCCUGACAGAUUCUGGUGAAUCUGCGAAUUAUGCUGUAUAUCAC [A5G U43A C68A U80A] showed a self-cleavage of 0.63. Variant UAACGGGGGGCCACAGCAGAAGCGUUCACGUCGCAGCCCCUGCCAGAUUCCGGUGAAUCUGCGAAUUCUGCUGUAUAUCUC [A5G U43C U51C] has a self-cleavage of 0.22. With UAACGGGGGGCCACAGCAGAAGCGUUCACGUCGCAGCCCCUGCCAGAUUCUGGUGAAUCUGCGUAUUCUGCUGUAUACCUC [A5G U43C A64U U78C] the self-cleavage was 0.56. UAACGGGGGGCCACAGCAGAAGCGUUCACGUCGCAGCCCCCGUCAGAUUCUGGUGAAUCUGCGAAUCCUGCUGUAUAUCUC [A5G U41C U67C] showed a self-cleavage of 0.12. In the case of UAACGGGGGGCCACAGCAGAAGCGUUCACGUCGCAGCCCCCGUCAGAUUCUGGUGAAUCUGCGAAUUCUGCUGUACAUCUC [A5G U41C U76C], the self-cleavage is reported as 0.46. Variant UAACGGGGGGCCACAGCAGAAGCGUUCACGGCGCAGCCCCCGUCAGGUUCUGGUGAAUCUGCGAAUUCCGCUGAAUAUCUC [A5G U31G U41C A47G U69C U74A] has a self-cleavage of 0. UAACGGGGGGCCACAGCAGAAGCGUUCACGCCGCAGCCCCCGUCAGAUUCUGGAGAGCCUGCGAAUUCUGCUGUAUAUCUC [A5G U31C U41C U54A A57G U58C] showed a self-cleavage of 0.08. UAACGGGGGGCCACAGCAGAAGCGUUCACGUCGCAGCCCCGGUCAGAUUCUGGUGGAUCUGCGGAUUCUGCUGUAUAUCUC [A5G U41G A56G A64G] gave a self-cleavage of 0.44. For UAACGGGGGGCCACAGCAGAAGCGUUCACGUCGCAGCCCCUGUCAGAUUCAGGUGAGUCUGCGAAUUCUGCUGUAUAUCUC [A5G U51A A57G], the self-cleavage was 0.26. UAACGGGGGGCCACAGCAGAAGCGUUCACGCCGCAGCCCCUGUCAGAUUCUGGUGAAUCUGCGAAUUCUGCUGAAUACCUC [A5G U31C U74A U78C] showed a self-cleavage of 0.86. In the case of UAACGGGGGGCCACAGCAGAAGCGUUCACGCCGCAGCCCCUGUCAGAUUCAGGUGAAUCUGCGAAUUCUGCUGUAAAACUC [A5G U31C U51A U76A U78A], the self-cleavage is reported as 0.74. With UAACGGGGGGCCACAGCAGAAGCGUUCACGUCGCAGCCCCUGUCAGAUUCAGGUGAAUCUGCGUAUUCCGCUGUAUAUCUC [A5G U51A A64U U69C] the self-cleavage was 0.17. Variant UAACGGGGGGCCACAGCAGAAGCGUUCACGUCGCAGCCCCUGUCAGAUACUGGUGUAUCUGCGAAUUCUGCUGUAUAUCUC [A5G U49A A56U] has a self-cleavage of 0.67. Variant UAACGGGGGGCCACAGCAGAAGCGUUCACGUCGCAGCCCCUGUCAGAUCCUGGUGAAUAUGCGAGUUCUGCUGGAUAUCUC [A5G U49C C59A A65G U74G] has a self-cleavage of 0.07. Work on UAACGGGGGGCCACAGCAGAAGCGUUCACGUCGCAGCCCCUGUCAGACUCUGGUGAAUCUGCGAACUCUGCUGUAUAUCCC [A5G U48C U66C U80C] yielded a self-cleavage of 0.39. In the case of UAACGGGGGGCCACAGCAGAAGCGUUCACGUCGCAGCCCCUGUCAGACACUGGCGUAUCUGCGAAUUCUGCUGUAUAUCAC [A5G U48C U49A U54C A56U U80A], the self-cleavage is reported as 0.14. Work on UAACGGGGGGCCACAGCAGAAGCGUUCACGUCGCAGCCCCUGUCAGACUCUGGUGAAUCAGCGAAUACUGCUGUAUAUCUC [A5G U48C U60A U67A] yielded a self-cleavage of 0.12. For UAACGGGGGGCCACAGCAGAAGCGUUCACGUCGCAGCCCCUGUCAGAUCCAGGUGAAUCUGCGAAUUCUGCUGUAUAUCUC [A5G U49C U51A], the self-cleavage was 0.14. With UAACGGGGGGCCACAGCAGAAGCGUUCACGUCGCAGCCCCUGUCAGACUCUGGUGUAUCUGCGAAUACUGCUGUAUACCCC [A5G U48C A56U U67A U78C U80C] the self-cleavage was 0.17. UAACGGGGGGCCACAGCAGAAGCGUUCACGUCGCAGCCCCAGUCAGAUUCCGGUGAGUCUGCGGAUUCUGCUGUAUAUCUC [A5G U41A U51C A57G A64G] gave a self-cleavage of 0.27. In the case of UAACGGGGGGCCACAGCAGAAGCGUUCACGUCGCAGCCCCUGCUAGAUUCUGGUGAAUCUGCGAAUUCUGCUGUAUAUCUC [A5G U43C C44U], the self-cleavage is reported as 0.36. In the case of UAACGGGGGGCCACAGCAGAAGCGUUCACGUCGCAGCCCCCGUCAGACUCUGGUGAAUCUGCGAAUUCUGCUGUAUAUCAC [A5G U41C U48C U80A], the self-cleavage is reported as 0.43. For UAACGGGGGGCCACAGCAGAAGCGUUCACGUCGCAGCCCCCGCCAGAUUCUGGCGAAUCUGCGGAUUCUGCUGUAUAUCUC [A5G U41C U43C U54C A64G], the self-cleavage was 0.21. Variant UAACGGGGGGCCACAGCAGAAGCGUUCACGUCGCAGCCCCUGUCAGAUCCUGGUGGAUCUGCGAACUCAGCUGUAUAUCUC [A5G U49C A56G U66C U69A] has a self-cleavage of 0.
